# The campaign covered roughly 420,000 compounds. About 50,000 (12%) were called active. The inconclusive results got no clear call from the source; some entries with a clear call stand among them for comparison. Calls come from the whole dose curve; as a rule, active = well fitted inhibition curve with a large enough effect; inconclusive = small, poorly fitted or top-dose-only effect; inactive = flat fitted curve, though single readings scatter. Potencies of inconclusive entries are left out as doubtful fits.
# Experiment: qHTS for Inhibitors of human tyrosyl-DNA phosphodiesterase 1 (TDP1): qHTS in cells in presence of CPT; note: nearly all actives have a fitted effect of over 55% in size
# Conditions: chicken DT40 Tdp1-/-;hTDP1 cells + 20 nM CPT, ATP luminescence, 48 h
# Outline: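 Chicken DT40 Tdp1-/- cells complemented with human TDP1, 400 cells/well, exposed to compounds plus 20 nM camptothecin for at least 48 h at 37 C; viability read as ATP content by CellTiter-Glo luminescence.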
# [1] = activity change, negative = growth inhibition: at 46.2 µM (top of the series)
# % is set by controls: 0 for no effect and ±100 for the full control effect; potency is the fitted concentration of half-maximal effect; tags give direction and shape of the fitted curve.
compound,measurement,setting,value
CC(C)(C)c1ccccc1OCC(=O)NCc1ccccc1,Potency,[1],"inconclusive [inhibitor, single point]"
Cc1nn(C(=O)c2cccnc2)c(C)c1Sc1ccccc1,Potency,[1],"inconclusive [inhibitor, single point]"
COc1ccc(N2CCN(C(=O)CS(=O)Cc3nc(-c4ccc(OC)c(OC)c4)oc3C)CC2)cc1 (centres undefined),Potency,[1],"inconclusive [inhibitor, single point]"
C/C(=N\NC(=O)c1ccc(=O)[nH]n1)c1cccnc1,Potency,[1],inactive
N=c1n(CCO)c2ccccc2n1Cc1ccc(Cl)cc1,Potency,[1],active: 25.9 µM
COc1ccc(Cc2nnc(Cl)c3ccccc23)cc1OC,Potency,[1],inactive
CCn1c(=O)c2c3c(sc2n2cnnc12)CCC3,Potency,[1],inactive
CC1Cc2cccc3ccc(=O)n(c23)C1 (centres undefined),Potency,[1],inactive
CC(=O)C(N=Nc1ccccc1)(Sc1nnc(-c2ccccc2)n1-c1ccccc1)C(C)=O,Potency,[1],"inconclusive [inhibitor, single point]"
COc1ccc(NC(=O)Cn2nnc(C(=O)NCc3cccs3)c2N)cc1,"activity change, negative = growth inhibition",[1],inconclusive: -30.2% [inhibitor]
same,"activity change, negative = growth inhibition",at 46.2 µM (top of the series),inactive: 3.23%
O=c1c(/C=C(\O)c2ccc(F)cc2)nc2ccccc2n1-c1ccccc1,Potency,[1],"inconclusive [inhibitor, partial curve, poor fit]"
Cn1c(=S)[nH]c2cc(C(=O)N3CCN(Cc4cccs4)CC3)ccc2c1=O,Potency,[1],"inconclusive [inhibitor, single point]"
Cn1c(CNC(=O)Cc2ccc3c(c2)OCO3)nnc1SCc1ccccc1,Potency,[1],inactive
O=C(CCCc1nc(-c2ccccc2)no1)Nc1cccnc1,Potency,[1],"inconclusive [inhibitor, single point]"
Cc1nc(N)sc1-c1csc(Nc2cccc(O)c2)n1,Potency,[1],"inconclusive [inhibitor, partial curve]"
CCOc1ccc2oc(C(=O)N3CCN(c4ccccc4OCC)CC3)c(C)c2c1,Potency,[1],"inconclusive [inhibitor, single point]"
COc1cc(/C=C/C(=O)OCC(=O)NC(=O)NCc2ccco2)ccc1OC(F)F,Potency,[1],"inconclusive [inhibitor, single point]"
Cc1ccccc1-c1noc(CCC(=O)NCCc2ccccc2)n1,Potency,[1],"inconclusive [inhibitor, single point]"
CCC(CC)C(=O)Nc1ccc2nc(SCC(=O)N3CCCC3)sc2c1,Potency,[1],"inconclusive [inhibitor, single point]"
COc1ccc(Cc2nc3ccc(C(=O)NCc4ccccc4C)cc3o2)cc1,Potency,[1],active: 20.6 µM
Cc1ccc(NC(=S)N(CCN(C)C)C(C)c2cccnc2)c(C)c1 (centres undefined),Potency,[1],inactive
COc1ccc(NC(=O)CN2C(=O)CC(c3ccc(C)c(C)c3)=Nc3ccccc32)cc1OC,Potency,[1],"inconclusive [inhibitor, single point]"
CCc1cccc(C)c1NC(=O)c1cc(S(=O)(=O)N(Cc2ccc(C(=O)OC)cc2)Cc2ccc(OC)c(OC)c2)ccc1F,Potency,[1],"inconclusive [inhibitor, single point]"
O=C(Nc1ccc(-c2csnn2)cc1)C1CC1,Potency,[1],"inconclusive [inhibitor, partial curve]"
COc1ccccc1NC(=S)NC(=O)/C=C/c1cccs1,Potency,[1],inactive
O=C(NN1CCCCC1)c1cccc(COc2ccc(Cl)cc2)c1,Potency,[1],"inconclusive [inhibitor, single point]"
O=C(Nc1ccc2nc([C@H]3C[C@H](O)[C@@H](CO)O3)[nH]c2c1)NC(c1ccccc1)c1ccccc1,Potency,[1],inactive
Fc1cccc2sc(Nc3nc4c(F)cccc4s3)nc12,Potency,[1],"inconclusive [inhibitor, single point]"
Cc1ccc(S(=O)(=O)N2CCCCC2)cc1C(=O)OC(C)C(=O)NC1CCCCC1C (centres undefined),Potency,[1],"inconclusive [inhibitor, single point]"
CN(C)c1ccc(NC(=O)CN2CCc3ccccc3C2)cc1,Potency,[1],inactive
O=C(NC1CC1)c1ccc2nc(-c3ccco3)c(-c3ccco3)nc2c1,Potency,[1],"inconclusive [inhibitor, single point]"
Cc1c(Cl)cccc1NC(=S)NCC(C)C,Potency,[1],"inconclusive [inhibitor, single point]"
CN(C)c1ccc(/C=C/c2nc(-c3ccccc3O)n(-c3ccccc3)n2)cc1,Potency,[1],active: 16.4 µM
O=C1Nc2ccccc2N=C(c2ccc3c(c2)OCO3)C1N(C(=O)c1ccc2ccccc2c1)C1CC1 (centres undefined),Potency,[1],active: 16.4 µM
CC(C)CCNC(=O)CN1C(=O)CSc2ccc(S(=O)(=O)N3CCC(C)CC3)cc21,Potency,[1],"inconclusive [inhibitor, single point]"
O=C(Cn1nnc(-c2ccccc2)n1)Nc1ccccc1N1CCOCC1,Potency,[1],"inconclusive [inhibitor, single point]"
COc1ccc(C)cc1NC(=O)C(Sc1nnc(-c2ccncc2)n1-c1ccc(Cl)cc1)c1ccccc1 (centres undefined),Potency,[1],"inconclusive [inhibitor, partial curve, poor fit]"
O=C1CC(c2cccs2)Cc2nc(NC(=O)C3CC3)ncc21 (centres undefined),Potency,[1],inactive
O=C(NCC(=O)N1CCN(S(=O)(=O)c2ccccc2C(F)(F)F)CC1)c1sc2ccccc2c1Cl,Potency,[1],"inconclusive [inhibitor, partial curve]"
CC(C)(C)c1ccc(OCCCC(=O)NNC(=O)c2ccccc2O)cc1,Potency,[1],"inconclusive [inhibitor, single point]"
Cc1ccc(C(=O)COC(=O)c2ccncc2)cc1[N+](=O)[O-],Potency,[1],"inconclusive [inhibitor, single point]"
NC(=O)c1ccccc1N/C=C/C(=O)c1ccc(Cl)cc1,Potency,[1],"inconclusive [inhibitor, partial curve]"
Cc1ccc(C)c(NC(=S)N2CCN(S(C)(=O)=O)CC2)c1,Potency,[1],inactive
CCOC(=O)C1CCCN(c2nc3c(S(=O)(=O)c4ccc(CC)cc4)nnn3c3ccsc23)C1 (centres undefined),Potency,[1],"inconclusive [inhibitor, single point]"
CC(C(=O)N1CCc2ccccc21)N1CCN(S(=O)(=O)c2cccs2)CC1 (centres undefined),Potency,[1],"inconclusive [inhibitor, single point]"
CCOC(=O)C1=CCN(S(=O)(=O)c2ccccc2F)C1c1cccc(F)c1 (centres undefined),Potency,[1],"inconclusive [inhibitor, single point]"
CCOc1ccc(S(=O)(=O)N2CCC(c3ccccc3)CC2)cc1C(=O)O,Potency,[1],inactive
Cc1c(C(=O)NCc2ccc(F)cc2)oc2ccc(S(=O)(=O)N3CCCCC3)cc12,Potency,[1],active: 23.1 µM
Cc1cccc(NC(=O)c2ccc(NCCc3ccccc3)c([N+](=O)[O-])c2)c1,Potency,[1],"inconclusive [inhibitor, single point]"
COc1cccc(C(=O)Nc2ccccc2C(=O)NC2CC2)c1,"activity change, negative = growth inhibition",[1],inconclusive: -30.4% [inhibitor]
COC(=O)C1=C(N)c2ccccc2C1(C#N)c1ccccc1 (centres undefined),Potency,[1],inactive
CCOc1ccccc1NC(=O)C(OC(=O)c1ccccc1)c1ccccc1 (centres undefined),Potency,[1],"inconclusive [inhibitor, single point]"
COc1ccc2nc(SC(C)C(=O)NC3CCCC3)[nH]c2c1 (centres undefined),Potency,[1],"inconclusive [inhibitor, single point]"
CCC(=O)N1CCCc2cc(S(=O)(=O)N3CCN(c4ncccn4)CC3)ccc21,Potency,[1],active: 14.6 µM
Cn1c(=O)[nH]c(=O)c2c1nc(N1CCOCC1)n2Cc1ccccc1,Potency,[1],"inconclusive [inhibitor, partial curve]"
COC(=O)C1(C(=O)OC)c2ccccc2N(S(=O)(=O)c2ccc(C)cc2)C1CC(=O)c1ccccc1 (centres undefined),Potency,[1],"inconclusive [inhibitor, partial curve, poor fit]"
O=S(=O)([N-]c1nc2ccccc2nc1-[n+]1ccc(Cc2ccccc2)cc1)c1ccc(Br)s1,Potency,[1],active: 14.6 µM
CCOC(=O)C1(Cc2cccc(Cl)c2)CCCN(C(=O)c2cccc(C)n2)C1 (centres undefined),Potency,[1],"inconclusive [inhibitor, single point]"
COc1ccc(CNC(=O)CN2C(=O)C3CCCN3c3ncc(Cl)cc32)cc1 (centres undefined),Potency,[1],"inconclusive [inhibitor, single point]"
Cc1ccc2nc(N(CCCN(C)C)C(=O)c3ccc(S(=O)(=O)N4CCCCCC4)cc3)sc2c1,Potency,[1],"inconclusive [inhibitor, single point]"
CC(=O)Oc1ccc(N2C(=O)C3C(C2=O)C(C(=O)c2ccc(Cl)cc2)N2CCCC32)cc1 (centres undefined),Potency,[1],"inconclusive [inhibitor, single point]"
CN1CCN(c2ccc(S(=O)(=O)N3CCCCC3)cc2NC(=O)Cc2ccc(Cl)cc2)CC1,Potency,[1],"inconclusive [inhibitor, single point]"
CCC(C(=O)OCC(=O)N(C)c1c(N)n(Cc2ccccc2)c(=O)[nH]c1=O)c1ccccc1 (centres undefined),Potency,[1],inactive
c1ccc2c(c1)oc1c(Nc3ccc(CN4CCOCC4)cc3)ncnc12,Potency,[1],"inconclusive [inhibitor, single point]"
CCOC(=O)Cc1ccc(NC(=O)Nc2c[nH]c(=O)[nH]c2=O)cc1,Potency,[1],inactive
C[C@H](CO)N1C[C@H](C)[C@@H](CN(C)Cc2cccc(O)c2)OCc2cnnn2CCCC1=O,Potency,[1],inactive
COc1ccc(/C=N/NC(=O)CCN2CCCCC2c2cccnc2)cc1Cn1cc([N+](=O)[O-])cn1 (centres undefined),Potency,[1],"inconclusive [inhibitor, partial curve]"
CN(C)C(CNC(=O)CCNC(=O)c1ccccc1Cl)c1ccco1 (centres undefined),Potency,[1],"inconclusive [inhibitor, partial curve, poor fit]"

# From PubChem BioAssay AID686979 (National Center for Advancing Translational Sciences (NCATS), 2013)
